The source gives no read counts; variants with many changes may rest on few reads.

B1: LINE1-mini (parent)
chain: GGCAGAGCUCAACACAGCGUGGCAAAGUGGCUGUGGCUAGACUGCC

Variants of B1 are the subject of the data set. The data set can be described thus: self-cleavage, relative activity (ratio to wild type); higher = more cleavage; in vitro, sequencing; the parent is a self-cleaving ribozyme.
Take GGCAGAGUUCAACACAGCGUGGCAAAGUGACUGAGACUAGACUGCC [C8U G30A U34A G36A]: the self-cleavage was found to be 0.01.

For the variant GGCAGAGUUCAACACAGCGUCGCAAAGUGGCUGUGGAUAGACUGCC [C8U G21C C37A], the self-cleavage was determined as 0.07.

With GGCAGAGUUCAACACAGCCUAGCAAAGUGGCUGUGGCUAGACUGAC [C8U G19C G21A C45A], the self-cleavage came out at 0.07.

Regarding GGCAGAGUUCAACACAGCAUGGCAAACUGGCUGUCGCUAGACUGCC [C8U G19A G27C G35C], the self-cleavage amounted to 0.01.

In the case of GGCAGAGUUCAACACAGCGUGGCAAAGUUUCUGUGGCUUGACUGCC [C8U G29U G30U A39U], the self-cleavage stood at 0.15.

On to GGCAGAGUUCAACACAGCGUGGCAAAGUGUCUGUUGCUAGACUGCC [C8U G30U G35U], for which the self-cleavage amounted to 0.22.

Consider GGCAGAGUUCAACACAGCGUGGCAAAGUUGCUGUGGCUAGACUUCC [C8U G29U G44U], for which the self-cleavage is 0.12.

In the case of GGCAGAGUUCAACACAGCGUAGCAAAGUGGCUGUGGUUAGACUGCC [C8U G21A C37U], the self-cleavage came to 0.14.

Turning to GGCAGAGUUCAACACAUCGUGGCACAGUGGCUGUGGCUAGACUGCC [C8U G17U A25C], the self-cleavage is 0.04.

In the case of GGCAGAGUUCAACACAGCGUGGCAAAUUGGCUGUGGCUAGCCUGCG [C8U G27U A41C C46G], the self-cleavage was determined as 0.53.

In the case of GGCAGAGUUCAACACAGCGUUUCAAAGUGUCUGUGGCUAGUCUGCC [C8U G21U G22U G30U A41U], the self-cleavage was determined as 0.26.

With GGCAGAGUUCAACACAGCGUGUCAAAGCGGCUGUGGCUAGAAUGCC [C8U G22U U28C C42A], the self-cleavage is 0.02.

In the case of GGCAGAGUUCAACACAGCGUGGCAAAGUUGGUGUGGCUAGAUUGCC [C8U G29U C31G C42U], the self-cleavage was 0.06.

Regarding GGCAGAGUUCAACACAGCGUUGCACAGUGGCUGUGGCUAUACUGCC [C8U G21U A25C G40U], the self-cleavage came out at 0.18.

With GGCAGAGUUCAACACAGCGUGACAAACUGGCUGUGCCUAGACUGCA [C8U G22A G27C G36C C46A], the self-cleavage was 0.02.

Take GGCAGAGUUCAACACAGCGUAGUAGUGUGGCUGUUGCUAGACUGCC [C8U G21A C23U A25G A26U G35U]: the self-cleavage was 0.12.

With GGCAGAGUUCAACACAGCGUGGCAAAGUGUCUGUGGCUAGAGUGCC [C8U G30U C42G], the self-cleavage worked out at 0.27.

For the variant GGCAGAGUUCAACACAGCGUGGCAAAUUGGCUUUGGCUAGACUGCC [C8U G27U G33U], the self-cleavage worked out at 0.22.

As for GGCAGAGUUCAACACAGCGUGUUAAAGUGGCUGUGACUAGACUGCC [C8U G22U C23U G36A], the self-cleavage amounted to 0.74.

Consider GGCAGAGUUCAACACAGCGUGCCAAAGUGGCUUUGGCUAGACUAUC [C8U G22C G33U G44A C45U], for which the self-cleavage was determined as 0.05.

Turning to GGCAGAGUUCAACACAGCGUGGCAAAGUUGCUGUGGCUAGACUGGC [C8U G29U C45G], the self-cleavage was determined as 0.79.

Take GGCAGAGUUCAACACAGCCUGCCAAAGUGGCUGUGGCUAGACUGCC [C8U G19C G22C]: the self-cleavage was determined as 0.08.

Take GGCAGAGUUCAACACAUCGUGGCAAAGUGGCUGUGGCUAGAGUGCG [C8U G17U C42G C46G]: the self-cleavage was found to be 0.09.

GGCAGAGUUCAACACAGCGUGGCAAAGUGCCUGUGGCUAGACUGCG [C8U G30C C46G]: the self-cleavage amounted to 0.01.

Take GGCAGAGUUCAACACAUCGUGGCAAAGUGACUGUGGCUAGCCUUCC [C8U G17U G30A A41C G44U]: the self-cleavage is 0.12.

With GGCAGAGUUCAACACAGCGUGGCAAAGUUGCUGUCGGUAGACUGCC [C8U G29U G35C C37G], the self-cleavage is 0.41.

As to GGCAGAGUUCAACACAGCCUGGCAAAGUGGCUGUGCCUAGACUGCC [C8U G19C G36C], the self-cleavage came out at 0.06.

As for GGCAGAGUUCAACACAGCGUGGCAAAGUCGCUGUGGCCAGUCUGCC [C8U G29C U38C A41U], the self-cleavage stood at 0.17.

Turning to GGCAGAGUUCAACACAGCGUAACAAAGUGGCUGUGGCUAGACCGCC [C8U G21A G22A U43C], the self-cleavage is 0.01.

For GGCAGAGUUCAACACAUCGUGGCAAAGUGGCUGUGUCUAGAGUGCC [C8U G17U G36U C42G], the self-cleavage was 0.09.

Regarding GGCAGAGUUCAACACAGCGUAGCAAAGUGGUUGUGGCUAGACUGCC [C8U G21A C31U], the self-cleavage is 0.3.

For GGCAGAGUUCAACACAGCGUGGCAAAGUCGCUGUGACUAGACUGCC [C8U G29C G36A], the self-cleavage came out at 0.12.

On to GGCAGAGUUCAACACAGCUUGGCAAAGUGGCUGUCGCUAGACUGCA [C8U G19U G35C C46A], for which the self-cleavage worked out at 0.1.

With GGCAGAGUUCAACACAGCUUGGCAAAGUUUCUGUGGCUAUACUGCC [C8U G19U G29U G30U G40U], the self-cleavage is 0.72.

Take GGCAGAGUUCAACACAGCGUGGCAAAGUCGCUGUGGCUGUACUGCC [C8U G29C A39G G40U]: the self-cleavage was 0.

GGCAGAGUUCAACACAGCGUGGCAAAUUGGCUGGGGCUAGACUGCC [C8U G27U U34G]: the self-cleavage is 0.1.

Consider GGCAGAGUUCAACACAGCGUCGCAAAGUAACUGUGGCUAGACUGCC [C8U G21C G29A G30A], for which the self-cleavage amounted to 0.35.

As for GGCAGAGUUCAACACAGCGUGGCAAAGUCGCUGUGGCUAGACUCCC [C8U G29C G44C], the self-cleavage was determined as 0.04.

Regarding GGCAGAGUUCAACACAGCGUGGCAAAUUGGCUGUGGCCAGAUUGCC [C8U G27U U38C C42U], the self-cleavage was 0.19.

For GGCAGAGUUCAACACAGCGUGGCAAAUUGGCUGUGGCUGGACUGCC [C8U G27U A39G], the self-cleavage amounted to 0.01.

As for GGCAGAGUUCAACACAGCGUGGCAAAUUGGCUGUGACUAGACUGCC [C8U G27U G36A], the self-cleavage came out at 0.3.

As for GGCAGAGUUCAACACAGCAUGGCAAAGUGGCUGAGGCUAGACUGCC [C8U G19A U34A], the self-cleavage was 0.03.

For the variant GGCAGAGUUCAACACAGCGUGGCAAAAUGGCUGUGGCUAGACUGCG [C8U G27A C46G], the self-cleavage amounted to 0.27.

On to GGCAGAGUUCAACACAUAGUGGCAAAUUGGCUGUGGCUAGACUGCC [C8U G17U C18A G27U], for which the self-cleavage worked out at 0.3.

Turning to GGCAGAGUUCAACACAGCAUGGCAAAGUGGAGAUGGCUAGACUUCC [C8U G19A C31A U32G G33A G44U], the self-cleavage turned out to be 1.

In the case of GGCAGAGUUCAACACAGCAUGGCUAACUGGGUGUGGCUAGACUGCC [C8U G19A A24U G27C C31G], the self-cleavage was 0.08.

As to GGCAGAGUUCAACACAGCGUGUCAAAAUGGCUGUGGCUAGACUGCC [C8U G22U G27A], the self-cleavage was found to be 0.49.

For GGCAGAGUUCAACACAGCGUGGCAAAGUGACUGUGGCUAGACGGCC [C8U G30A U43G], the self-cleavage turned out to be 0.21.

On to GGCAGAGUUCAACACAGCCUGGCAAAGUGACUGUGACUAGACUGCC [C8U G19C G30A G36A], for which the self-cleavage was 0.31.

For GGCAGAGUUCAACACAGCGUUGCAAAGUGGCUGUGGCUAGAUUGCC [C8U G21U C42U], the self-cleavage was determined as 0.26.

In the case of GGCAGAGUUCAACACAGCAUGGCAACGUGGCUGUGGAUAGACUGCC [C8U G19A A26C C37A], the self-cleavage came to 0.03.

As for GGCAGAGUUCAACACAGCGUGGCAAAGUAGCUGUGGCUAGACUCCC [C8U G29A G44C], the self-cleavage stood at 0.11.

For the variant GGCAGAGUUCAACACAGCGUGGCAAAGUUGCUGUAGCUAGACUGCC [C8U G29U G35A], the self-cleavage amounted to 1.14.

For the variant GGCAGAGUUCAACACAGCCUGCCAAAGUGGCUGUGGCUAGGCUGCC [C8U G19C G22C A41G], the self-cleavage amounted to 0.04.

Consider GGCAGAGUUCAACACAGCCUGGCAAUGUGGUUUCGGCUAGACUGCC [C8U G19C A26U C31U G33U U34C], for which the self-cleavage came out at 0.26.

Consider GGCAGAGUUCAACACAGCAUAGCAAAGUGGCUGUGGCGAGAUUGCC [C8U G19A G21A U38G C42U], for which the self-cleavage stood at 0.03.

(Values after the RNAGym collection of RNA variant scans (doi:10.7554/elife.90254).)
